Reference: the supplement of paper PMC6746778
This is one part of the list. Single values are uncertain, as repeats are few or missing.

Assays:
Assay in all cases: proliferation Z-score within cell line (SRB, relative to all inhibitors screened on that line); triple-negative breast cancer lines and a kinase inhibitor library; SRB is the sulforhodamine B protein stain; higher = less growth inhibition (more resistant)
Settings in all cases: concentration: 1 µM; 4 days
Bt20 = system: Bt20
Bt549 = system: Bt549
HCC1143 = system: HCC1143
HCC1806 = system: HCC1806
HCC1937 = system: HCC1937
HCC38 = system: HCC38
HCC70 = system: HCC70
Hs578T = system: Hs578T
MDA-MB-231 = system: MDA-MB-231
MDA-MB-435s = system: MDA-MB-435s
MDA-MB-436 = system: MDA-MB-436
MDA-MB-453 = system: MDA-MB-453
MDA-MB-468 = system: MDA-MB-468
SKBR7 = system: SKBR7
SUM1315MO2 = system: SUM1315MO2
SUM149PT = system: SUM149PT
SUM159PT = system: SUM159PT
SUM185PE = system: SUM185PE
SUM229PE = system: SUM229PE
SUM52PE = system: SUM52PE
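Further: Single-dose primary screen of a 378-member kinase inhibitor library in 96-well plates, with growth read as absorbance of protein-bound SRB dye after TCA fixation.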

SMILES | proliferation Z-score within cell line (Bt20) | proliferation Z-score within cell line (Bt549) | proliferation Z-score within cell line (HCC1143) | proliferation Z-score within cell line (HCC1806) | proliferation Z-score within cell line (HCC1937) | proliferation Z-score within cell line (HCC38) | proliferation Z-score within cell line (HCC70) | proliferation Z-score within cell line (Hs578T) | proliferation Z-score within cell line (MDA-MB-231) | proliferation Z-score within cell line (MDA-MB-435s) | proliferation Z-score within cell line (MDA-MB-436) | proliferation Z-score within cell line (MDA-MB-453) | proliferation Z-score within cell line (MDA-MB-468) | proliferation Z-score within cell line (SKBR7) | proliferation Z-score within cell line (SUM1315MO2) | proliferation Z-score within cell line (SUM149PT) | proliferation Z-score within cell line (SUM159PT) | proliferation Z-score within cell line (SUM185PE) | proliferation Z-score within cell line (SUM229PE) | proliferation Z-score within cell line (SUM52PE)
CC1=C(C(=O)Nc2cc3cn[nH]c3cc2F)C(c2ccc(C(F)(F)F)cc2)CC(=O)N1 (stereo not given) | 0.616 | 0.333 | 0.663 | 0.401 | 0.885 | 0.111 | 0.574 | -0.0383 | 0.598 | 0.907 | 0.854 | 0.66 | 0.646 | 0.19 | 0.919 | 0.465 | 0.283 | 1.29 | 0.981 | 1.66
Nc1nccc(Oc2ccc(NC(=O)c3c[nH]cc(-c4ccc(F)cc4)c3=O)cc2F)c1Cl | 1.09 | 0.804 | -0.109 | 1.02 | -0.204 | 0.547 | -1.75 | 0.503 | 0.76 | 0.65 | -0.827 | 0.784 | 1.17 | 0.437 | 1.14 | 0.883 | -0.157 | 1.13 | 1.14 | 1.1
CC(C)CCN1c2nc(Nc3cc(F)c(O)c(F)c3)ncc2N(C)C(=O)C1C (stereo not given) | 0.888 | 0.735 | 0.945 | 0.955 | 0.804 | 0.677 | 0.838 | 0.855 | 0.849 | 0.981 | 1.09 | 1 | 0.91 | 1.13 | 0.623 | 0.374 | 0.764 | 1.57 | 0.293 | 1.12
Cc1cc(O)c2c(c1)C(=O)c1cccc(O)c1C2=O [Chrysophanic Acid] | 0.843 | 0.815 | 0.744 | 0.651 | 0.889 | 0.648 | 0.632 | 0.794 | 0.888 | 0.947 | 0.537 | 0.905 | 1.07 | 0.294 | 1.22 | 0.929 | 0.452 | 1.1 | 0.379 | 1.04
CNCc1ccc(-c2cc(-c3nc(-c4ccc(S(=O)(=O)C(C)C)cc4)cnc3N)on2)cc1 | -1.47 | -0.31 | 0.56 | -1.29 | 0.192 | 0.455 | 0.523 | 0.708 | -1.42 | -0.668 | -0.552 | -0.158 | -1.39 | -0.877 | -0.257 | -2.51 | 0.0751 | -0.336 | -1.01 | 0.104
CN1CCN(c2ccc3nc(-c4c(N)c5c(F)cccc5[nH]c4=O)[nH]c3c2)CC1 [Dovitinib (TKI-258) Dilactic Acid] | 0.433 | 0.442 | 0.343 | 0.115 | -0.0977 | 0.528 | 0.591 | 0.649 | -0.225 | -0.448 | -0.371 | 0.785 | -0.222 | 0.245 | -1.08 | -0.242 | 0.59 | -1.04 | 0.128 | -1.22
C[C@@H](Oc1cc(-n2cnc3ccc(CN4CCN(C)CC4)cc32)sc1C(N)=O)c1ccccc1C(F)(F)F | -2.05 | -2.14 | -2.2 | -1.76 | -1.49 | -2.52 | -2.13 | -1.59 | -1.93 | -1.36 | -2.31 | -1.59 | -1.77 | -2.44 | -1.56 | -2.27 | -3.74 | -0.99 | -0.269 | -1.16
COc1cc(Nc2ncc(F)c(Nc3ccc4c(n3)N(COP(=O)(O)O)C(=O)C(C)(C)O4)n2)cc(OC)c1OC [Fostamatinib (R788)] | 0.16 | 0.117 | -0.148 | -0.726 | 0.66 | -0.99 | 0.435 | -0.125 | -0.31 | 0.0694 | 0.701 | 0.596 | 0.0394 | -0.57 | -1.21 | -0.431 | 0.294 | -0.602 | -0.0312 | -1.18
COc1cc2nccc(Oc3ccc(NC(=O)C4(C(=O)Nc5ccc(F)cc5)CC4)cc3)c2cc1OC [Cabozantinib malate (XL184)] | 0.881 | 0.678 | 0.512 | 0.86 | 0.843 | 0.538 | 0.64 | 0.495 | 0.476 | 0.423 | 0.519 | 0.848 | 0.81 | 0.345 | 0.335 | 0.688 | 0.465 | 0.243 | 0.434 | -1.69
O=c1ncn2nc(Sc3ccc(F)cc3F)ccc2c1-c1c(Cl)cccc1Cl | 0.46 | 0.435 | 1.01 | 0.435 | -0.0857 | 0.52 | 0.583 | 0.512 | 0.809 | 0.767 | 0.245 | 0.834 | 0.77 | 0.177 | 0.477 | 0.516 | 0.54 | 0.813 | 0.679 | 0.671
COc1cc2c(Oc3ccc4[nH]c(C)cc4c3F)ncnc2cc1OCCCN1CCCC1 [Cediranib (AZD2171)] | 0.135 | -0.225 | 0.331 | -1.82 | 0.442 | 0.0492 | 0.557 | 0.0349 | 0.935 | 0.497 | 0.483 | -0.562 | 0.197 | -0.718 | -1.55 | -0.117 | 0.402 | -1.48 | -0.437 | -1.3
COc1ccc(S(=O)(=O)N(C(C)=O)c2ccccc2/C=C/c2cc[n+]([O-])cc2)cc1 | -1.56 | -1.35 | -0.42 | -1.54 | -0.586 | -2.48 | 0.511 | -1.75 | -0.855 | -1.68 | -0.25 | -1.89 | -1.76 | -2.2 | -1.94 | -1.5 | 0.428 | -0.904 | -1.66 | -1
CO[C@H]1C[C@@H]2CC[C@@H](C)[C@@](O)(O2)C(=O)C(=O)N2CCCC[C@H]2C(=O)O[C@H]([C@H](C)C[C@@H]2CC[C@@H](OC(=O)C(C)(CO)CO)[C@H](OC)C2)CC(=O)[C@H](C)/C=C(\C)[C@@H](O)[C@@H](OC)C(=O)[C@H](C)C[C@H](C)/C=C/C=C/C=C/1C | -1.32 | -2.08 | -0.545 | -0.014 | -1.39 | -0.861 | -1.4 | -2.51 | -0.664 | -0.678 | -1.3 | -1.77 | -0.575 | -1.03 | -0.936 | -0.504 | -0.19 | -1.08 | -1.09 | -0.96
CC(C)(C)n1nc(-c2ccc(Cl)cc2)c2c(N)ncnc21 | -0.105 | 0.775 | 0.517 | 0.555 | 0.715 | 0.476 | 0.549 | 0.614 | 0.472 | 0.494 | 0.822 | 0.824 | 0.621 | 0.339 | -0.401 | -0.134 | 0.552 | 0.354 | 0.036 | 0.188
CN(C)CCSSCCNC(=O)C1CCN(C(=O)CSc2ccc(Cl)cc2)CC1 | 0.476 | 0.0134 | 0.647 | -1.21 | 0.355 | 0.00917 | 0.411 | 0.182 | 0.709 | 0.365 | -1.36 | -1.29 | 0.394 | 0.733 | 0.151 | 0.624 | 0.358 | 0.407 | 0.178 | 0.631
O=C1C(c2c(O)[nH]c3ccccc23)=Nc2ccccc21 [Indirubin] | 0.674 | 0.471 | 0.433 | 0.759 | 0.632 | 0.0834 | 0.608 | 0.277 | 0.327 | 0.808 | 0.403 | 0.498 | 0.134 | 0.162 | 0.551 | 0.749 | 0.337 | 0.0875 | 0.967 | 0.643
Cc1ccc(NC(=O)c2ccc(CN3CCN(C)CC3)cc2)cc1Nc1nccc(-c2cccnc2)n1 [Imatinib (STI571)] | 0.965 | 1.06 | 0.813 | 1.19 | 0.966 | 0.586 | 0.73 | 0.643 | 1.06 | 1.08 | 0.482 | 1.02 | 1.05 | 0.7 | 1.44 | 1.29 | 0.635 | 0.871 | 0.707 | 1.1
N#Cc1c(NC(=O)c2cccc3ccccc23)sc2c1CCCC2 [JNK Inhibitor IX] | -0.697 | 0.171 | 0.376 | 0.0118 | 0.426 | 0.237 | 0.384 | 0.4 | -1.55 | -1.73 | 0.323 | 0.393 | 0.612 | -0.154 | -2.17 | -0.527 | 0.251 | 0.319 | -1.77 | -0.608
CC(C)NC[C@@H](C(=O)N1CCN(c2ncnc3c2[C@H](C)C[C@H]3O)CC1)c1ccc(Cl)cc1 | -1.22 | -0.265 | 0.691 | 0.612 | -0.852 | 0.446 | -1.48 | -0.569 | 0.914 | 0.716 | -0.0591 | -1.27 | -0.812 | 0.803 | 0.325 | -0.804 | 0.705 | -0.883 | 0.699 | -0.318
Cc1cc(Nc2cc(N3CCN(C)CC3)nc(/C=C/c3ccccc3)n2)n[nH]1 | -0.161 | 0.363 | -0.488 | -0.93 | -0.0172 | -0.0376 | -0.191 | 0.176 | -1.22 | -1.33 | -0.977 | -1.13 | -1.89 | -0.887 | -1.2 | -0.651 | -0.152 | -1.06 | -0.683 | -1.73
N#CC1(c2ccc(NC(=O)c3cccnc3NCc3ccncc3)cc2)CCCC1 [Apatinib] | 0.896 | 0.751 | 0.778 | 0.976 | 0.806 | 0.578 | 0.736 | 0.63 | 0.819 | 0.958 | 0.795 | 0.831 | 0.874 | 0.501 | 0.578 | 0.958 | 0.179 | 0.73 | 1.49 | 1.06
Cn1c(Nc2ccc(C(F)(F)F)cc2)nc2cc(Oc3ccnc(-c4ncc(C(F)(F)F)[nH]4)c3)ccc21 | -0.383 | -0.689 | 1 | -0.492 | 0.792 | 0.603 | 0.599 | -0.0347 | -1.24 | -1.7 | 0.503 | 0.263 | -1.24 | -0.457 | -1.32 | -0.458 | 0.645 | 0.28 | -0.739 | 0.456
COc1cc(C(=O)NC2CCN(C)CC2)ccc1Nc1ncc2c(n1)N(C1CCCC1)CC(F)(F)C(=O)N2C | -2.94 | -2.68 | -2.7 | -1.44 | -2.44 | -3.06 | -0.673 | -1.91 | -2.6 | -2.27 | -1.85 | -1.64 | -2.42 | -2.78 | -2.22 | -2.82 | -3.31 | -1.34 | -1.57 | -1.58
CCc1cccc(CC)c1NC(=O)N1Cc2[nH]nc(NC(=O)c3ccc(N4CCN(C)CC4)cc3)c2C1 | -0.719 | -0.411 | 0.902 | 0.0633 | 0.963 | -0.54 | 0.876 | 0.152 | -0.78 | -0.176 | 0.753 | -0.905 | -1.5 | -1.08 | -1.06 | -0.0152 | 0.41 | -1.79 | 0.0059 | -1.44
